{"source": "PubChem BioAssay AID1345083", "about": "(National Center for Advancing Translational Sciences (NCATS), 2018)", "note": "About 6,200 (6.6%) of roughly 94,000 compounds were called active. The shares of active, inactive and inconclusive entries below differ from those in the screen. Calls come from the whole dose curve; as a rule, active = well fitted inhibition curve with a large enough effect; inconclusive = small, poorly fitted or top-dose-only effect; inactive = flat fitted curve, though single readings scatter. A potency beside an inconclusive call is a rough fit, not a confirmed value. % is set by controls: 0 for no effect and ±100 for the full control effect; potency is the fitted concentration of half-maximal effect; tags give direction and shape of the fitted curve.", "data": [{"experiment": "Cytotoxic Profiling in HEK 293 Cell Line of Diverse Libraries Using Quantitative High-Throughput Screening; note: nearly all actives have a fitted effect of over 60% in size", "details": "HEK 293 viability, ATP luminescence (CellTiter-Glo), 48-72 h; series mostly up to 115 µM; activity change, negative = cytotoxicity: at the top concentration", "summary_of_the_method": "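Luminescence from cellular ATP, measured with CellTiter-Glo, indicates HEK 293 viability. Cells plated at 250 cells/well are treated with compound for 48 or 72 hr at 37 degree Celsius before reagent addition.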", "values": [{"smiles": "Cc1ccsc1C(=O)N1[C@H]2CC[C@@H]1c1cnc(-c3ccc(F)cc3)nc1C2", "Potency": "inconclusive: 22.4 µM [inhibitor, partial curve, poor fit]"}, {"smiles": "O=S(=O)(NC[C@H]1C[C@@H]2CCN1C[C@@H]2CN1CCC(Cc2ccccc2)CC1)c1ccc(Cl)cc1", "Potency": "active: 7.08 µM"}, {"smiles": "O[C@H]1[C@H](NCC2CCCC2)[C@@H](c2ccccc2)C[C@H]1O", "Potency": "inconclusive: 178 µM [inhibitor, partial curve, poor fit]"}, {"smiles": "O=C(NC[C@H]1C[C@@H]2CCN1C[C@@H]2CN1CCC(Cc2ccccc2)CC1)c1ccco1", "activity change, negative = cytotoxicity": "inactive: -25.4% [at 172 µM]"}, {"smiles": "COc1cc2c(cc1Oc1ccccc1)NC(=O)C21CCN(C(=O)c2cnccn2)CC1", "Potency": "inconclusive: 112 µM [inhibitor, single point]"}, {"smiles": "COc1cc2c(cc1Oc1ccccc1)NC(=O)C21CCN(C(=O)C(C)C)CC1", "Potency": "inconclusive: 112 µM [inhibitor, partial curve]"}, {"smiles": "COc1ccc(-c2cc([C@H]3CN4CC[C@H]3C[C@@H]4CNS(=O)(=O)c3cc(OC)ccc3OC)n(C)n2)cc1", "activity change, negative = cytotoxicity": "inactive: -7.7%"}, {"smiles": "O=C(NCc1ccc(F)cc1)[C@H]1CN2CCC1C[C@@H]2Cn1cc(COc2ccccc2)nn1", "note": "(some centres undefined)", "Potency": "inconclusive: 89.1 µM [inhibitor, single point]"}, {"smiles": "CN1CCN2C(=O)N(Cc3cccnc3)C[C@H]2C1", "activity change, negative = cytotoxicity": "inactive: -17% [at 230 µM]"}, {"smiles": "Cc1nc(-c2ccco2)cc([C@H]2CN3CC[C@H]2C[C@@H]3CNS(=O)(=O)c2cccs2)n1", "Potency": "inconclusive: 56.2 µM [inhibitor, partial curve, poor fit]"}, {"smiles": "COc1cc2c(cc1OCc1ccccc1)N(C(=O)c1ccnn1C)CC21CCN(C)CC1", "Potency": "inconclusive: 79.4 µM [inhibitor, single point]"}, {"smiles": "NC(=O)C1=NO[C@@H]2CN(CC3CCCCC3)C[C@H]12", "Potency": "inconclusive: 141 µM [inhibitor, single point]"}, {"smiles": "C/C=C/CN1CC2ON=C(C(=O)O)C2C1", "note": "(centres undefined)", "outcome": "inactive [at 230 µM]"}, {"smiles": "COc1cc2c(cc1OCc1ccncc1)NC(=O)C21CCN(Cc2ccccc2)CC1", "Potency": "active: 100 µM"}, {"smiles": "O=C(NC[C@H]1C[C@@H]2CCN1C[C@@H]2CN1CCCC1)c1ccco1", "activity change, negative = cytotoxicity": "inactive: 4.84% [at 172 µM]"}, {"smiles": "COc1cc2c(cc1Oc1ccccc1)NC(=O)C21CCN(c2nc(C)cnc2C)CC1", "Potency": "inconclusive: 56.2 µM [inhibitor, partial curve, poor fit]"}, {"smiles": "CCC1(N2CCN(C(=O)Cc3ccccc3F)CC2)CCN(S(C)(=O)=O)C1", "note": "(centres undefined)", "Potency": "inconclusive: 89.1 µM [inhibitor, single point]"}, {"smiles": "Cc1nc(-c2cccs2)cc([C@H]2CN3CC[C@H]2C[C@@H]3CNC(=O)c2ccc(C(F)(F)F)cc2)n1", "Potency": "inconclusive: 35.5 µM [inhibitor, partial curve, poor fit]"}, {"smiles": "CCS(=O)(=O)N1[C@H]2CC[C@@H]1c1cnc(-c3ccc(F)cc3)nc1C2", "Potency": "active: 39.8 µM"}, {"smiles": "CSCC(=O)N1CC(CO)C2(CCNCC2)C1", "note": "(centres undefined)", "activity change, negative = cytotoxicity": "inactive: 8.47%"}, {"smiles": "COc1cc2c(cc1OCc1ccccc1)N(C(=O)COc1ccccc1C(N)=O)CC21CCN(C)CC1", "Potency": "active: 39.8 µM"}, {"smiles": "COc1ccc(-c2cc([C@H]3CN4CC[C@H]3C[C@@H]4CNC(=O)c3ccccc3)n(C)n2)cc1OC", "activity change, negative = cytotoxicity": "inactive: -10.2%"}, {"smiles": "COc1nc2c(cc1CNC(=O)C1C(C)(C)C1(C)C)C(=O)N(C1CCCC1)C2", "Potency": "inconclusive: 50.1 µM [inhibitor, partial curve, poor fit]"}, {"smiles": "CN1C(=O)CO[C@H]2CN(C3CCOCC3)C[C@H]21", "activity change, negative = cytotoxicity": "inactive: -1.61% [at 230 µM]"}, {"smiles": "Cc1nc(-c2ccco2)cc([C@H]2CN3CC[C@H]2C[C@@H]3CNCC2CCCCC2)n1", "Potency": "active: 112 µM"}, {"smiles": "Cc1ccc2nc(C(=O)N3CC4CC(C3)c3cccc(=O)n3C4)cn2c1", "note": "(centres undefined)", "activity change, negative = cytotoxicity": "inactive: 2.26%"}, {"smiles": "O=C(C1CCCCC1)N1C[C@@H]2C[C@H](C1)c1c(/C=C/c3ccc(Cl)cc3)ccc(=O)n1C2", "activity change, negative = cytotoxicity": "inactive: -13.3%"}, {"smiles": "O=C(Nc1nccs1)[C@H]1CN2CCC1C[C@@H]2Cn1cc(CC2CCCCC2)nn1", "note": "(some centres undefined)", "activity change, negative = cytotoxicity": "inactive: 0.155% [at 172 µM]"}, {"smiles": "COc1cc2c(cc1OCC1CC1)NC(=O)C21CCN(Cc2ccccc2O)CC1", "Potency": "inconclusive: 89.1 µM [inhibitor, partial curve, poor fit]"}, {"smiles": "Cc1cccc(C(=O)N2CCC3(CC2)c2nccn2-c2ccccc2CN3C)c1", "Potency": "inconclusive: 79.4 µM [inhibitor, single point]"}, {"smiles": "COc1ccc2c(c1)C1(CCN(S(=O)(=O)c3ccc(Cl)cc3)C1)C(=O)N2C", "note": "(centres undefined)", "Potency": "active: 50.1 µM"}, {"smiles": "C#CCN1C(=O)[C@@H]2[C@H](c3ccccc31)[C@@H](C(=O)OCC)[C@@H](c1ccccc1)N2C(=O)COC", "Potency": "active: 44.7 µM"}, {"smiles": "Cc1ccsc1C(=O)C1CCCN(Cc2cccc(F)c2)C1", "note": "(centres undefined)", "Potency": "inconclusive: 89.1 µM [inhibitor, single point]"}, {"smiles": "CC(C)(C)CC(=O)N1C[C@@H]2C[C@H](C1)c1ccc(NC(=O)c3ccco3)c(=O)n1C2", "activity change, negative = cytotoxicity": "inactive: -0.821% [at 172 µM]"}, {"smiles": "CC(C)NC(=O)N1CCC2(CC1)c1nccn1-c1ccccc1CN2C", "activity change, negative = cytotoxicity": "inactive: 11.5%"}, {"smiles": "Cn1nc(C2CCCC2)cc1[C@H]1CN2CC[C@H]1C[C@@H]2CNS(=O)(=O)c1ccccc1", "Potency": "active: 100 µM"}, {"smiles": "Cc1nc(-c2ccccc2Br)cc([C@H]2CN3CC[C@H]2C[C@@H]3CNC(=O)NC(C)C)n1", "Potency": "active: 79.4 µM"}, {"smiles": "CCC(=O)N1CCC2(CC1)c1nccn1-c1ccccc1CN2CC(C)C", "Potency": "inconclusive: 44.7 µM [inhibitor, partial curve, poor fit]"}, {"smiles": "O=C(c1ccco1)N1[C@H]2CC[C@@H]1c1cnc(-c3ccc(F)cc3)nc1C2", "Potency": "active: 44.7 µM"}, {"smiles": "Cc1nc(-c2ccccc2Br)cc([C@H]2CN3CC[C@H]2C[C@@H]3CNC(=O)Nc2cccc(C#N)c2)n1", "Potency": "active: 22.4 µM"}, {"smiles": "Cn1nc(-c2ccccc2)cc1[C@H]1CN2CC[C@H]1C[C@@H]2CNC(=O)Nc1cccc(C#N)c1", "activity change, negative = cytotoxicity": "inactive: -27.7%"}, {"smiles": "CC(C)CN(Cc1cccnc1)C1CN(C(=O)COc2ccc(F)cc2)C1", "Potency": "inconclusive: 89.1 µM [inhibitor, single point]"}, {"smiles": "O=C1NCCOCCN[C@@H]2CCCC[C@H]12", "outcome": "inactive"}, {"smiles": "O=C(NC[C@H]1C[C@@H]2CCN1C[C@@H]2CN1CCC(Cc2ccccc2)CC1)Nc1ccsc1", "Potency": "inconclusive: 17.8 µM [inhibitor, full curve, poor fit]"}]}]}
